# Measurements from PMC4336329 (PLoS ONE, 2015).
# The whole screen tested about 310,000 compounds, of which about 14,000 (4.5%) showed an effect of 50% or more. Effects have a minus sign here. The list shows a part of the results.
# Biological target: human ether-à-go-go-related gene (hERG) potassium channel (human, UniProt Q12809)
# Test: primary screen, population patch clamp on CHO cells stably expressing hERG
# 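Also: peak tail current of the secondary pulse compared with the same well before compound.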
# Sequence of human ether-à-go-go-related gene (hERG) potassium channel (Q12809 whole entry, looked up): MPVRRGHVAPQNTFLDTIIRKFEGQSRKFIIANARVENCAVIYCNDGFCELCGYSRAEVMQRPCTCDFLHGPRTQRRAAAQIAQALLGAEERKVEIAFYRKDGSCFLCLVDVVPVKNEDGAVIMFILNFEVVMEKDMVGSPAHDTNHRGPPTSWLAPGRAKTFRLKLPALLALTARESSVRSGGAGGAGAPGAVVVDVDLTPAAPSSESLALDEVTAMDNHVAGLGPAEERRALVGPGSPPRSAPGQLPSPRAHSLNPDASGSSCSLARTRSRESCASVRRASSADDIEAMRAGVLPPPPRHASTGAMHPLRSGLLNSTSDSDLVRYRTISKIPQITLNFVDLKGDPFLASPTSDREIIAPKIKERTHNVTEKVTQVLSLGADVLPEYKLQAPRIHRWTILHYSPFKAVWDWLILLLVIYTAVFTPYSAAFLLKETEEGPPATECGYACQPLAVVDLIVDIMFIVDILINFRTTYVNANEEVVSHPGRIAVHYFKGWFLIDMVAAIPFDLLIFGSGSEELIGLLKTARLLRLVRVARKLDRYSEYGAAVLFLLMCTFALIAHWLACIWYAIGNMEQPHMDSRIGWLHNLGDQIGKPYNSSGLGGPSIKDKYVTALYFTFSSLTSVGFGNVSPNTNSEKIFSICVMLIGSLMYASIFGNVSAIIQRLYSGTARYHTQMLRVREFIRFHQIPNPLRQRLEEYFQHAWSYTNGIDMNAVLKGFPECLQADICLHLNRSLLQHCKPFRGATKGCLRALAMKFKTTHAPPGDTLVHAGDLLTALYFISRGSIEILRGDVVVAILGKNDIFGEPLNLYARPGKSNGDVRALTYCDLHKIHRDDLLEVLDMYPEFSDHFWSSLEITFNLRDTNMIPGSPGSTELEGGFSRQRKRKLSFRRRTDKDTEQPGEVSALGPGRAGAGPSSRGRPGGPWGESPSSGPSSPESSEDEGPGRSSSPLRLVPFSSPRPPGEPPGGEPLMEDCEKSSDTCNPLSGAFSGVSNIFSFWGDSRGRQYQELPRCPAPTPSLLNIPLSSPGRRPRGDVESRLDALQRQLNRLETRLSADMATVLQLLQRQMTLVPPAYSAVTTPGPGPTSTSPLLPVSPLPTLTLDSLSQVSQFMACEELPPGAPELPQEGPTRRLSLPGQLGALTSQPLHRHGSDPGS
row,Structure (SMILES),"hERG current change (%, negative = inhibition) at 10uM [%]"
1,O=C(Nc1nccs1)C(Cl)(Cl)Cl,28.3
2,O=C(c1ccccc1)C1C(=O)c2ccccc2C1=O,10.1
3,CCOC(=O)C1(Cc2cccc(Cl)c2)CCCN(C(=O)c2cn[nH]c2)C1 (stereo not drawn),-8.81
4,O=C(CSc1nnnn1-c1ccccc1)N1N=CCC1c1ccccc1 (stereo not drawn),-17.6
5,COC(=O)c1sc(-c2ccc(Cl)cc2)cc1NC(=O)COCC(=O)O,16.6
6,Cc1cc(=O)oc2cc(OC(C)C(=O)Nc3ccc(C(N)=O)cc3)ccc12 (stereo not drawn),5
7,COC(=O)Cc1csc(N)[nH+]1.[Cl-],21.1
8,CCn1c(CNC(=O)c2cccs2)n[nH]c1=S,3.27
9,O=C(Nc1ccccc1)C1=C[C@H](c2ccc(C(F)(F)F)cc2)C[C@H](OCCCCO)O1,-12.8
10,CC(C)Cc1nnc(NC(=O)CSc2ncn[nH]2)s1,7.76
11,O=C(CN1CCN(c2ccccc2F)CC1)Nc1nnc(C(F)(F)F)s1,-1.49
12,Cc1ccsc1C(=O)C1CCCN(Cc2ccn[nH]2)C1 (stereo not drawn),6.96
13,O=S(=O)(NC1=NCCC1)c1cccc(NS(=O)(=O)c2ccc(F)c(Cl)c2)c1,-1.14
14,Cc1cccc(NC(=O)Cn2cnc3sc(C)c(S(=O)(=O)N4CCC(C)CC4)c3c2=O)n1,11.8
15,O=C(C1CCC1)N1CCc2cc(S(=O)(=O)NCc3ccco3)ccc21,-2.87
16,COc1ccc2c(c1)CCc1c(C(=O)N3CCc4ccccc4C3)noc1-2,-20.9
17,COC(=O)C1=C(c2ccc(-c3ccccc3)c(F)c2)C[C@@H]2CC[C@H]1N2C(=O)NCCNC(C)=O,7.03
18,COc1ccc(C(C(=O)NCCC(C)C)N(CCO)C(=O)c2snc(C(N)=O)c2N)cc1OC (stereo not drawn),13.8
19,CC1(C)C(=O)C=C[C@]2(C)[C@H]3CC[C@@]4(C)[C@H](c5ccoc5)OC(=O)[C@H]5O[C@]54[C@]3(C)[C@H](O)C[C@@H]12,8.63
20,O=C(NCC1COc2ccccc2O1)c1cccc(S(=O)(=O)NCc2ccccc2)c1 (stereo not drawn),-24.5
21,Cc1cc(C(=O)Nc2nnc(C3CCCCC3)s2)no1,-8.9

row,Structure (SMILES),"hERG current change (%, negative = inhibition) at 10uM [%]"
1,CCOc1ccc(NS(=O)(=O)c2ccc(C(=O)NCCN3CCOCC3)cc2)cc1,2.96
2,Cc1ccc(S(=O)(=O)Nc2ccc(N3CCN(C)CC3)nc2)cc1,-6.87
3,Cc1cc(C)n2nc(SCC(=O)N/N=C/c3ccccn3)nc2n1,3.74
4,Cc1cc([N+](=O)[O-])nn1CC(=O)NCCCn1ccnc1,-2.86
5,CCC(C)[C@H](NC(=O)NCc1ccco1)C(=O)O (stereo partly drawn),24.1
6,CCCN1C(=O)C(O)(C2CC(=O)CC(C)(C)O2)c2ccccc21 (stereo not drawn),-10.3
7,O=C(Cn1cc2c(n1)CCCCC2)NCCN1CCOCC1,6.47
8,CCC(=O)Nc1cccc(-c2cnc3ccccc3n2)c1,-14.3
9,Clc1ccc(-c2cc3ccccc3nc2N2CCOCC2)cc1,18.1
10,S=c1[nH]nc(-c2cccnc2)n1/N=C/C=C/c1ccccc1,17
11,CC1CC(C)CN(CCCOc2ccccc2[N+](=O)[O-])C1.O=C(O)C(=O)O (stereo not drawn),-35.5
12,Cc1c(C(=O)NCc2ccc3c(c2)OCO3)oc2ccc(S(=O)(=O)N3CCCC3)cc12,21.3
13,O=C1C2CCCN2C(=O)N1CCN1CCN(c2ccccc2)CC1 (stereo not drawn),-8
14,COc1ccccc1CNC(=O)COC(=O)c1ccc(-n2cnnn2)cc1,-25.3
15,S=C(c1ccc(-c2ccccc2Cl)o1)N1CCOCC1,11.5
16,COC(=O)Cc1ccc(NC(=S)NCc2ccc(F)cc2)cc1,-74.4
17,C=CCn1c(=N)c(C(=O)NCCCOC)cc2c(=O)n3cccc(C)c3nc21,-73.5
18,CCc1nn(CC(=O)NCCCN2CCc3ccccc3C2)c(=O)c2cc3sccc3n12,-70.2
19,Cc1c(NC(=O)C2CCN(S(=O)(=O)c3cccs3)CC2)c(=O)n(-c2ccccc2)n1C,7.93
20,COCCCN(C(C)=O)c1nc(-c2ccccc2)cs1,-23.4
21,NC(=O)NC(=O)C[n+]1cccc(/C=N/O)c1.[Cl-],5.5
